# Experimental data: PubChem BioAssay AID504332 (National Center for Advancing Translational Sciences (NCATS), 2011)
# In all, about 350,000 compounds went through this assay and about 31,000 (8.9%) were called active. The shares of active, inactive and inconclusive entries below differ from those in the screen. Calls come from the whole dose curve; as a rule, active = well fitted inhibition curve with a large enough effect; inconclusive = small, poorly fitted or top-dose-only effect; inactive = no such curve, though single readings can be large or run the other way. Potencies of inconclusive entries are doubtful fits and often do not repeat.
# Target: Histone-lysine N-methyltransferase EHMT2 (Homo sapiens) (UniProt Q96KQ7)
# UniProt Q96KQ7, sequence (Q96KQ7 whole entry, looked up): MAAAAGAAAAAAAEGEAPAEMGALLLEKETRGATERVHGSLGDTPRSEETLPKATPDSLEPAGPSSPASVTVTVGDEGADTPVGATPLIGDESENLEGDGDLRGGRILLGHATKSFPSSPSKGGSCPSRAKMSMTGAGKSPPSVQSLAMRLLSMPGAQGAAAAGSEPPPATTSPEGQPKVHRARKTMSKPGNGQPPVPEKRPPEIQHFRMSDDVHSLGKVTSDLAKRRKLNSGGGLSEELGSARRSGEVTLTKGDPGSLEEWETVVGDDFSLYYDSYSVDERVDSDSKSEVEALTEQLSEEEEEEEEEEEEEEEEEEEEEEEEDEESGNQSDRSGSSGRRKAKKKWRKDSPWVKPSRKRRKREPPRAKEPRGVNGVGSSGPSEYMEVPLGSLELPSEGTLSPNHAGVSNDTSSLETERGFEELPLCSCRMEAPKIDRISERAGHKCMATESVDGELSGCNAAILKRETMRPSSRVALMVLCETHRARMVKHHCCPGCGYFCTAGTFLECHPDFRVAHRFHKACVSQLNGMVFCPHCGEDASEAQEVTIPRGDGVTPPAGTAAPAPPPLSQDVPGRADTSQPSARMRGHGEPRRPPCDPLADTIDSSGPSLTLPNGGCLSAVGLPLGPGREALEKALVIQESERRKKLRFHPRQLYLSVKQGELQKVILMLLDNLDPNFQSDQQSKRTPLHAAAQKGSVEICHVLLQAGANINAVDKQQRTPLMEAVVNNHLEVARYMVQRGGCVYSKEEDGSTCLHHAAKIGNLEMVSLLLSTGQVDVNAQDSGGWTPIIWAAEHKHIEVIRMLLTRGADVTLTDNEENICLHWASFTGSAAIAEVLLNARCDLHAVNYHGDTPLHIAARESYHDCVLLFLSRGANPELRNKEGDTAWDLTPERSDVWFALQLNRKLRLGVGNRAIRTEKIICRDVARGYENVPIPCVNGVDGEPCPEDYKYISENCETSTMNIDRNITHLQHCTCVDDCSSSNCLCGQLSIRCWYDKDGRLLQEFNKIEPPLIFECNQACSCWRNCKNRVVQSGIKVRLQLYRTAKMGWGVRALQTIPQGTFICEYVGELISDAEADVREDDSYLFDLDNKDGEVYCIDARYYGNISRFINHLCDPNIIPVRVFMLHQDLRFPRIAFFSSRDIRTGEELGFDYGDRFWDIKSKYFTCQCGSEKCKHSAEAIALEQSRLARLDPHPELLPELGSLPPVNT
# Experiment: qHTS Assay for Inhibitors of Histone Lysine Methyltransferase G9a; note: nearly all actives have a fitted effect of over 75% in size
# Details: G9a H3K9 monomethylation, AlphaScreen, 2 h; activity, negative = inhibition: at 59 µM (top of the series) unless noted
# Summary of the method: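 Step 1: enzyme (final 20 nM) with compound, 15 min RT. Step 2: substrate peptide 500 nM and SAM 20 uM, 2 h RT. Step 3: anti-H3K9me1 antibody and AlphaScreen beads, 10 min, then plate read.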
# % is set by controls: 0 for no effect and ±100 for the full control effect; potency is the fitted concentration of half-maximal effect; tags give direction and shape of the fitted curve.
SMILES,"activity, negative = inhibition",Potency
COc1c(Br)cc2c(C)c(C(=O)O)oc2c1Br,inactive: -15.4% [at 102 µM],–
COc1ccc(N2CCN(S(=O)(=O)c3cccc4nsnc34)CC2)cc1,inactive: -10.9% [at 12.7 µM],–
COc1ccc2nc(N3CCCC(C(=O)NCCc4ccc(OC)c(OC)c4)C3)sc2c1 (configuration not stated),–,"inconclusive: 79.4 µM [inhibitor, single point]"
Cc1ccc(NC(=O)CS(=O)CC(=O)N(c2ccc(C)cc2)C(C)C(=O)NC2CCCCC2)cc1 (configuration not stated),–,active: 17.8 µM
OC(CON=C1c2ccccc2-c2ccccc21)CN1CCNCC1 (configuration not stated),–,active: 50.1 µM
O=C(CCc1nc2ccccc2c(=O)[nH]1)Nc1cc(Cl)ccc1N1CCCC1,–,active: 14.1 µM
Cc1ccc(-c2c[n+](CC(=O)Nc3ccc(C)cc3C)c3n2CCC3)cc1,inactive: 3.51% [at 102 µM],–
S=C(Nc1ccccc1Oc1ccccc1)NC1CCCC1,inactive: -28.1% [at 102 µM],–
Cc1cc(Cl)ccc1NC(=S)NCc1cccs1,inactive: -3% [at 102 µM],–
CN(Cc1ccccn1)C(=O)C1CCC(=O)N(CCc2ccc(Cl)cc2)C1 (configuration not stated),inactive: -7.34% [at 102 µM],–
O=C(c1sc2ccccc2c1Cl)N1CCN(c2ncccn2)CC1,inactive: 4.27%,–
COc1ccc(CSCC(=O)N/N=C/c2ccccc2OCc2ccccc2)cc1,inactive: -1.46% [at 2.33 µM],–
O=C(Nc1sc2c(c1C(=O)Nc1cccc(Cl)c1)CCCC2)c1cccs1,–,active: 1.58 µM
CC1C(=O)N2CCCc3cc(NC(=O)C(=O)NCCCc4ccccc4)cc1c32 (configuration not stated),–,"inconclusive: 63.1 µM [inhibitor, partial curve, poor fit]"
Cn1nnnc1SCC(=O)c1ccco1,–,"inconclusive: 12.6 µM [inhibitor, partial curve, poor fit]"
CCn1c(=O)cc(SCC(=O)NCCCN2CCN(c3ccc(F)cc3)CC2)c2ccccc21,–,"inconclusive: 89.1 µM [inhibitor, partial curve, poor fit]"
CC/C(=N/Nc1ccccc1)c1cnnc(SC)n1,–,"inconclusive: 6.31 µM [inhibitor, single point]"
N#CC1=C(Nc2ccc(Br)cc2)CCC1,–,"inconclusive: 89.1 µM [inhibitor, partial curve, poor fit]"
COC(=O)c1ccc(C[n+]2ccccc2)cc1,–,"inconclusive: 89.1 µM [inhibitor, single point]"
Cc1ccc(N2C(=O)c3ccccc3C2=O)cc1C,–,"inconclusive: 39.8 µM [inhibitor, single point]"
CCCn1c(=S)[nH]c2cc(Cl)ccc21,–,"inconclusive: 3.98 µM [inhibitor, single point]"
CCOC(=O)CNc1ccc2c(c1)OCO2,–,"inconclusive: 3.16 µM [inhibitor, single point]"
